Measurements reported in PubChem BioAssay AID1346378 (National Center for Advancing Translational Sciences (NCATS), 2018).
“And” between values parts separate entries of the source, which are not always exact repeats. Equal values may be shown once. In all, about 420,000 compounds went through this assay and about 540 (0.13%) were called active. The inconclusive results got no clear call from the source; some entries with a clear call stand among them for comparison. No stated cut-off is given here; in the data, active means activity change below about -50%; inconclusive means mostly about -30% to -49%; inactive means weaker than that.

Target: Phosphatidylinositol 4-kinase type 2-alpha (Homo sapiens) (UniProt Q9BTU6)
Experiment: qHTS for small molecular inhibitors of PI4K2A;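 further: -100% = wells without enzyme as full effect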
Details: purified PI4K2A, ADP-Glo luminescence, 1 h; at 76.9 µM, hits give low values
How it was run: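 In this quantitative HTS, ADP production by PI4K2A was quantified luminescently after 1 h at ambient temperature; 100 microM adenosine served as plate-quality control.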

Chain of UniProt Q9BTU6 (Q9BTU6 whole entry, looked up): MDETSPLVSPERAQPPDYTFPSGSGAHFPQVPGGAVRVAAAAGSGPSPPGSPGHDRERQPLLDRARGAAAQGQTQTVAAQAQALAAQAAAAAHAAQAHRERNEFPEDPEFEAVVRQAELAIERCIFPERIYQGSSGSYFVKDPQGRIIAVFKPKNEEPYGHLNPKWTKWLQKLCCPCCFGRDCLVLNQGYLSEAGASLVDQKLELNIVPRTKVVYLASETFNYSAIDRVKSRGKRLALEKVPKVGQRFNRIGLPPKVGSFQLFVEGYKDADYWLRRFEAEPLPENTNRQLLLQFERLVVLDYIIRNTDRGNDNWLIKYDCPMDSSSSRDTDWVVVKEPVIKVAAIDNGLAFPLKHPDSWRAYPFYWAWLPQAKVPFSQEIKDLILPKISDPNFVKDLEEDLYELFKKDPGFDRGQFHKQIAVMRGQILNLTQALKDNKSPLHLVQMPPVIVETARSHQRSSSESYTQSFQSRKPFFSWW

| Structure (SMILES) | activity change, negative = inhibition |
| --- | --- |
| O=C(O)c1ccc(Nc2cnc3ccccc3n2)cc1 | active: -55.1% |
| COc1cccc(-c2nc3cc(C)ccc3o2)c1 | inconclusive: -40.3% |
| COC/C=C/C1=CC2=CC(=O)C(C)(OC(=O)c3cnc4ccccc4n3)C(=O)C2=CN1Cc1ccc(OC)cc1 (stereo not given) | inconclusive: -32.8% |
| COCOCCn1cc(CN2CCS(=O)(=O)N(Cc3ccc(-c4ccc(C)cc4)cc3)C(CC(C)C)C2=O)nn1 (stereo not given) | inconclusive: -48% |
| Cc1ccccc1CN(c1ccc(C(=O)Nc2ccccc2C(=O)NCc2ccco2)cc1)S(C)(=O)=O | inactive: -5.25% |
| COc1ccc(Nc2nc(-c3sc(C)nc3C)cs2)cc1 | inactive: -1.87% |
| Cc1[nH][nH]c(=O)c1C(c1ccc2c(c1)OCO2)c1c(C)[nH][nH]c1=O | active: -66.9% |
| CCOc1ccccc1NC(=O)c1cnc2n(c1=O)CCS2 | inactive: -2.56% |
| CCCN(CCC(=O)Nc1ccccc1F)CC1CC1 | inactive: 7.08% |
| CC1=CC(=O)N(c2cccc3c(N4C(=O)C=C(C)C4=O)cccc23)C1=O | inconclusive: -35.3% |
| O=C(COC(=O)CCS(=O)(=O)c1ccccc1)Nc1ccccc1 | inactive: 2.03% |
| CC1=NN(c2ccc(S(=O)(=O)O)cc2Cl)C(=O)C1 | active: -61.4% |
| CC(=O)Nc1ccc2c(c1)C(=O)N(C)[C@H]1CC[C@H](CC(=O)NCc3ccc(F)cc3)O[C@@H]1CO2 | inactive: -7.77% |
| O=C(NCCCN1CCC(Cc2ccccc2)CC1)C1CCC(=O)N1C1CCCC1 (stereo not given) | inactive: 2.41% |
| COc1ccc(S(=O)(=O)CC(=O)c2cc3cc(Br)ccc3oc2=O)cc1 | inconclusive: -30.3% |
| CCN(CC)c1ccc(Nc2cc3n(c(=O)n2)CCc2cc(OC)c(OC)cc2-3)cc1 | inactive: 4.09% |
| Brc1ccc(N=Nc2ccc3ccccc3n2)cc1 | inconclusive: -35% |
| Cc1ccccc1S(=O)(=O)NC(=O)C1(C)CCN1C(=O)C(C)(C)c1ccccc1 (stereo not given) | inactive: -1.3% |
| O=C(CCN1CCN(c2ccccc2)CC1)c1ccc(Br)cc1 | inactive: 30.5% |
| Cc1ccc2oc(-c3cc(NC(=O)c4ncn[nH]4)ccc3O)nc2c1 | inconclusive: -31.9% |
| Nc1ncnc2c1ncn2[C@@H]1O[C@H](C(=O)N[C@H](CO)Cc2ccc(O)cc2)[C@@H](O)[C@H]1O | inconclusive: -31.2% |
| c1ccc(Cn2nnc3c(N4CCc5ccccc5C4)ncnc32)cc1 | inactive: 0.431% |
| O=C(Nc1ccccn1)c1cc2ccccc2o1 | inconclusive: -37.3% |

| Structure (SMILES) | activity change, negative = inhibition |
| --- | --- |
| CC(C)(C)OC(=O)NCCc1onc(-c2ccccc2F)c1C(=O)O | inconclusive: -30.2% |
| Cc1cccn2c(=O)c(C=O)c(Cl)nc12 | inactive: -7.13% |
| CCOC(=O)C1CCN(c2nc(N)c3c(N)nc(SCC(=O)O)cc3c2C#N)CC1 | inconclusive: -39.5% |
| O=C(CSc1ncnc2sc3c(c12)CCCCC3)NCc1ccco1 | inactive: -10.4% |
| O=C(c1ccccc1)c1ccc2cc(O)ccc2c1 | inconclusive: -42.2% |
| COCC(=O)OC1CCn2c1nc1c2C(=O)C(C)=C(NC(C)=O)C1=O (stereo not given) | inconclusive: -43.7% |
| COc1ccc(N2CSC3=C(C#N)C(c4cc(OC)ccc4OC)CC(=O)N3C2)c(OC)c1 (stereo not given) | inactive: -26.6% |
| CN(C)c1ccnc2sc3c(=O)n(Cc4ccccc4)cnc3c12 | inconclusive: -33.1% |
| Cc1ccccc1N=CC1=C(O)c2ccccc2C1=O | inconclusive: -43.4% |
| Cc1ccccc1-n1c(=O)cc(N2CCc3ccccc32)[nH]c1=O | inconclusive: -32.3% |
| S=C(NCc1ccccn1)Nc1cccc(Cl)c1 | inconclusive: -33.5% |
| CCN(CC)S(=O)(=O)c1cc(OC)ccc1N=Nc1ccc(O)c2ncccc12 | inconclusive: -32.6% |
| CCOc1ccc(/C=C/C(=O)c2ccccc2)cc1 | inconclusive: -37.6% |
| Cc1cc(C(=O)COC(=O)c2ccc(O)cc2O)c(C)n1-c1ccccc1 | inactive: 1.41% |
| O=C(CSc1nc2ccccc2c(=O)[nH]1)c1cccs1 | inactive: 3.66% |
| Cc1ccc2nc(-c3ccc(O)c(O)c3)cn2c1 | inconclusive: -39.1% |
| Cc1cc(OCc2cccc(Cl)c2)c(C)cc1CN1CCOCC1 | inactive: 2.41% |
| O=c1ccc(N=Nc2ccccc2)ccc1O | active: -60% |
| Cc1oc(-c2cccs2)nc1CS(=O)CC(=O)NCCCOC(C)C (stereo not given) | inactive: 2.55% |
| Nc1ccc2oc(CCc3ccccc3)nc2c1 | inconclusive: -39% |
| O=C(Nc1ccc2oc(-c3ccncc3)nc2c1)c1ccccc1 | inactive: -1.48% |
| N#CC1=C(N)OC2=C(C(=O)CC(c3ccccc3)C2)C1c1ccc2c(c1)OCO2 (stereo not given) | inactive: 2.26% |
| C[n+]1cccc2cccc([O-])c21 | inconclusive: -44.6% |

| Structure (SMILES) | activity change, negative = inhibition |
| --- | --- |
| CCCCC(CC)C(=O)Nc1cccc(SC)c1 (stereo not given) | inconclusive: -30.1% |
| O=C(Nc1cccc(O)c1)c1cc(-c2ccc3c(c2)OCO3)on1 | active: -71.6% |
| CCCCn1c(=O)cc(C)n(-c2ccccc2)c1=O | inactive: 2.61% |
| O=C(Nc1ccc(OCC(F)(F)C(F)F)c(C(F)(F)F)c1)c1ccccc1 | inactive: -11.2% |
| CCCCCCSc1ccc([C@@H]2[C@@H]3C(=O)N(CC)C(=O)[C@@H]3[C@]3(C(=O)OC)CCCCN23)cc1 | active: -51.8% |
| CCOC(=O)C1CCN(C2=C(NS(=O)(=O)c3ccc(Br)cc3)C(=O)c3ccccc3C2=O)CC1 | inconclusive: -39.7% |
| O=C(N/N=C/c1cc(Br)ccc1O)c1ccccc1Cl | inactive: 3.07% |
| Cc1nn(C)c(=O)n1-c1ccc(OCc2ccccc2)cc1 | inconclusive: -45.1% |
| O=C(c1coc(=O)c(Br)c1)N1CCCc2ccccc21 | inconclusive: -41.7% |
| COc1ccc(C(=O)O/N=C(\C)c2nccs2)cc1 | inconclusive: -49.2% |
| CC1(C)OC2C(O1)[C@@H](CO)O[C@H]2n1cnc2c(N)ncnc21 (stereo not given in full) | inconclusive: -49.3% |
| Cc1cc(C)c(OCC(=O)Nc2nc(-c3ccccn3)cs2)c(C)c1 | inconclusive: -38.1% |
| C#CCOc1ccc(/C=C2/C(=O)N(c3ccc(S(N)(=O)=O)cc3)N=C2C)cc1OC | inconclusive: -47.9% |
| COc1cccc(C(=O)Nc2cccc(OCC(=O)O)c2)c1 | inconclusive: -36.3% |
| Cc1ccccc1NC1=C/C(=N\S(=O)(=O)c2ccc(C(=O)O)cc2)c2ccccc2C1=O | inconclusive: -37.9% |
| O=C1CCCCCN1Sc1ccccc1 | inconclusive: -46.1% |
| O=S1(=O)CCN(Cc2csc(-c3cccs3)n2)CC1 | inconclusive: -30.7% |
| CCC(=O)Oc1ccc(-c2cnc3ccccc3n2)cc1 | active: -65.1% |
| O=C(O)c1cc(O)c2c(c1)[C@@H]([C@H]1c3cc(C(=O)O)cc(O)c3C(=O)c3c(O[C@@H]4O[C@H](CO)[C@@H](O)[C@H](O)[C@H]4O)cccc31)c1cccc(O[C@@H]3O[C@H](CO)[C@@H](O)[C@H](O)[C@H]3O)c1C2=O | active: -63.5% |
| CCCCN(CCCC)Cc1cc2ccccc2c2c1COC2 | active: -81.3% |
| N=C1C=CC(=C(c2ccc(N)cc2)c2ccc(N)cc2)C=C1 | inconclusive: -32.1% |
| CCC(C)C(=O)Nc1cc(OC)c(OC)cc1C(=O)O (stereo not given) | inconclusive: -35.6% |
| c1csc(C2Nc3cccc4cccc(c34)N2)c1 | inconclusive: -48.8% |

| Structure (SMILES) | activity change, negative = inhibition |
| --- | --- |
| COc1ccc(/C=N/Nc2cc(OC)ncn2)cc1 | inconclusive: -31.7% |
| O=C(C[C@H]1C[C@H](C(=O)N2CCCCC2)[C@@]2(CCc3ccccc3)c3[nH]c4cc(-c5ccco5)ccc4c3CCN2C1=O)NCCC1=CCCCC1 | inactive: -18.3% |
| CCOc1ccc(NC(=O)c2ccccn2)cc1 | inconclusive: -30.3% |
| COc1ccc(C2Nc3cccc4cccc(c34)N2)cc1Br | inactive: 3.04% |
| CCCCOC(=O)C1=C(C)NC2(O)c3ccccc3C(=O)C12O (stereo not given) | inconclusive: -33.9% |
| COc1ccc(C(=O)Oc2cccc3cccnc23)cc1[N+](=O)[O-] | inactive: -10.3% |
| O=C1Cc2cc(CCN3CCN(c4nsc5ccccc45)CC3)c(Cl)cc2N1 | inconclusive: -30.2% |
| O=C(OC1CCOC1=O)c1ccc(-c2nc3ccccc3s2)s1 (stereo not given) | active: -52.4% |
| O=C(c1ccccc1)c1ccc2nc(-c3ccco3)c(-c3ccco3)nc2c1 | inconclusive: -33.5% |
| Cc1ccc(S(=O)(=O)/N=C2\C=C(Nc3ccc(O)cc3)C(=O)c3ccccc32)cc1 | inconclusive: -33% |
| Cc1ccsc1/C=C1\CCc2ccccc2C1=O | active: -75.3% |
| Cc1[nH]n(-c2ccccc2)c(=O)c1/C=N/c1ccccn1 | inconclusive: -30.6% |
| Nc1ncnc2c1nc(SCCO)n2Cc1ccccc1 | inconclusive: -30.6% |
| Cc1nc(-c2ccc([N+](=O)[O-])cc2)sc1C(=O)O | inconclusive: -40.9% |
| CCOC(=O)CS(=O)(=O)c1nc(-c2ccccc2)cc(C(F)(F)F)n1 | inactive: 2.25% |
| COc1ccc2nc3ccccc3nc2c1N | inconclusive: -43.1% |
| Cc1ccc(C)n1NC(=O)c1ccccc1O | inconclusive: -38.1% |
| Cc1nc2scc(C)n2c(=O)c1S(=O)(=O)NCCc1ccccc1 | inactive: -2.95% and inactive: 7.12% |
| COc1cc(-c2nnc(SCc3cc(=O)oc4cc(O)c(O)cc34)o2)cc(OC)c1OC | inconclusive: -39.7% |
| COC(=O)CSc1nnc(CSc2nc(C)cc(C)n2)n1Cc1ccco1 | inactive: 5.06% |
| O=C(/C=C/c1cccnc1)/C=C/c1cccnc1 | inconclusive: -45.3% |
